Results reported in PubChem BioAssay AID1030 (National Center for Advancing Translational Sciences (NCATS), 2008).
Values joined by “and” are separate entries in the source; they are usually repeats but may differ in a detail not shown here. Identical values can stand only once. Hit rate of the full screen: of about 220,000 compounds, about 16,000 (7.3%) were called active. This list was built around the results that the source calls inconclusive (neither active nor inactive); the mix of calls is not that of the screen. Calls follow the shape of the dose curve; as a rule, active = well fitted inhibition curve with a large enough effect (not every such curve was filed as active); inconclusive = small, poorly fitted or top-dose-only effect, or another doubt; inactive = no such curve, though single readings can be large or run the other way. No potency is given beside an inconclusive call; the fits are too rough.
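For activity, negative = inhibition in this document: plate controls were no enzyme wells and a reference inhibitor.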
Potency is read from the fitted curve at half-maximal effect; tags tell the direction and shape of the fitted curve.

What follows are molecules tested against Aldehyde dehydrogenase 1A1 (Homo sapiens) (UniProt P00352) (assay: qHTS Assay for Inhibitors of Aldehyde Dehydrogenase 1 (ALDH1A1)). Settings: Purified ALDH1A1, NADH fluorescence, propionaldehyde substrate; series mostly up to 75.3 µM; activity, negative = inhibition: at the top concentration.
Chain of UniProt P00352 (P00352 whole entry, looked up): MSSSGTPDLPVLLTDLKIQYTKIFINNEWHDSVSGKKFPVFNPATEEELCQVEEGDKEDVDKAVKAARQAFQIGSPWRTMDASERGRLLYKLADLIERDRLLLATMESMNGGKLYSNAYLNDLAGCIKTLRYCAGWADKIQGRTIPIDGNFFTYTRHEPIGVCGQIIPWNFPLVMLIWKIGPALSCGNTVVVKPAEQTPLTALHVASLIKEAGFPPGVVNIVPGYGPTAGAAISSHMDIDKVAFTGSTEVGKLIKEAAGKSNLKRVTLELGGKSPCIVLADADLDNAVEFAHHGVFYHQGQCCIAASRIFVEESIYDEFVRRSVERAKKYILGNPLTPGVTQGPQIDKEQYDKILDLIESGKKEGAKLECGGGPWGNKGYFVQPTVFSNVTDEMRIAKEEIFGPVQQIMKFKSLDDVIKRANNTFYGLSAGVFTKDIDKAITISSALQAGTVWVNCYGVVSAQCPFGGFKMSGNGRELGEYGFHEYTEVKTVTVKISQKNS
With `CCN(CC)S(=O)(=O)c1ccc(Cl)c(NC(=O)COC(=O)/C=C/c2cc(OC)c(OC)c(OC)c2)c1` the Potency was inconclusive [inhibitor, partial curve].
With `COc1ccccc1NC(=O)c1ccc(NC(=O)CN(C)Cc2ccccc2F)cc1` the “activity, negative = inhibition” value was inactive: -1.86%.
In the case of `O=C(NC1CCCCCC1)c1c2c(nc3ccccc13)CCN(Cc1ccccc1)C2`, the Potency is reported as inconclusive [inhibitor, single point].
In the case of `O=C(Oc1ccc(N(C(=O)c2ccncc2)S(=O)(=O)c2ccc(F)cc2)cc1)c1ccncc1`, the “activity, negative = inhibition” value is reported as inactive: 1.19%.
In the case of `CCC1Cc2c(nc(N)c3c(N)nc(N4CCCCC4)c(C#N)c23)O1` (stereo unspecified), the Potency is reported as inconclusive [inhibitor, partial curve].
`CSc1nc(-c2ccccc2)nc(NC(C)=O)c1C(C)=O` was tested, and the “activity, negative = inhibition” value was inactive: 1.54%.
With `C#CCSc1nc(-c2cccs2)ccc1C#N` the Potency was inconclusive [inhibitor, partial curve].
For `COc1cccc(C(=O)NC2CCN(C(=O)N3CCCCC3)CC2)c1`, the Potency was inconclusive [inhibitor, partial curve].
With `COC(=O)CN1C(=O)C(O)(CC(=O)c2ccccc2)c2ccccc21` (stereo unspecified) the Potency was active: 4.47 µM.
With `C[C@H]1Cc2c(-c3ccccc3)nc3c(c2CO1)CN(C(=O)c1cccnc1)CC3` the activity, negative = inhibition was inactive: 12.5% [at 13.5 µM].
`CC1CCN(CC(=O)n2c3c(c4ccccc42)CCCC3)CC1` was tested, and the Potency was inconclusive [inhibitor, single point].
In the case of `COCCN1Cc2cccc(C(=O)Nc3cccc(C)c3C)c2C1=O`, the Potency is reported as inconclusive [inhibitor, single point].
`Cc1ccc(S(=O)(=O)c2cccc(S(=O)(=O)N3CCOCC3)c2)cc1S(=O)(=O)N1CCOCC1` was tested, and the Potency was inconclusive [inhibitor, single point].
With `O=C(O)c1ccccc1C(=O)Nc1n[nH]c(=S)s1` the Potency was active: 6.31 µM.
`CC(C)n1nnnc1SCC(=O)NCc1cccs1` was tested, and the Potency was inconclusive [inhibitor, single point].
In the case of `CCCS(=O)(=O)N1CCC(C(=O)NCCCOC(C)C)CC1`, the Potency is reported as inconclusive [inhibitor, partial curve].
`Cc1c(CCOC(=O)CC23CC4CC(CC(C4)C2)C3)sc[n+]1CC(=O)c1ccccc1` was tested, and the Potency was inconclusive [inhibitor, single point].
For `COc1cccc(NC(=O)CN2CCN(c3ccccc3F)CC2)c1`, the Potency was active: 10 µM.
With `CCN(CC)C(=O)CSc1nc(C)cc(C)c1C#N` the Potency was inconclusive [inhibitor, single point].
For `C=CCNC(=S)/C(=C(/[O-])c1ccccc1Br)[n+]1ccccc1`, the “activity, negative = inhibition” value was inactive: -10.2%.
In the case of `CCOC(=O)c1cnc2ccc(OCC)cc2c1NCCN1CCOCC1`, the Potency is reported as inconclusive [inhibitor, single point].
In the case of `Cc1cc(C=C2C(=O)c3ccccc3C2=O)c(C)n1C`, the Potency is reported as inconclusive [inhibitor, full curve].
`Cc1cc(C(=O)O)ccc1-n1c(C)cc(/C=C(/C#N)C(=O)Nc2ccccc2)c1C` was tested, and the Potency was inconclusive [inhibitor, partial curve].
`S=C(NC1CCCCC1)N1CCc2ccccc2C1` was tested, and the Potency was inconclusive [inhibitor, single point].
`O=C(Nc1ccc(Cl)c(Cl)c1)Nc1nnc(-c2ccncc2)s1` was tested, and the Potency was inconclusive [inhibitor, single point].
For `COc1ccc(N2C(=O)CSC23CCCCC3)cc1`, the Potency was active: 14.1 µM.
`COc1ccccc1-c1ccc(Nc2cccc(C(C)=O)c2)nn1` was tested, and the Potency was inconclusive [inhibitor, partial curve].
With `O=C(CCCc1nc(-c2ccccc2)no1)NCc1cccnc1` the Potency was active: 14.1 µM.
`CC(C)(C)NS(=O)(=O)c1ccc(NS(C)(=O)=O)cc1` was tested, and the Potency was inconclusive [inhibitor, single point].
In the case of `CCCCC(c1nnnn1C1CCCC1)N1CCN(C2CCCC2)CC1` (stereo unspecified), the Potency is reported as inconclusive [inhibitor, single point].
`O=C(NCCCn1ccnc1)c1cc(S(=O)(=O)N2CCOCC2)c(Cl)cc1Cl` was tested, and the Potency was inconclusive [inhibitor, single point].
For `c1ccc(CNC2=NCCCC2)cc1`, the “activity, negative = inhibition” value was inactive: 5.32%.
In the case of `CCn1c(=O)cc(OCC(=O)NC2CCCCC2)c2ccccc21`, the Potency is reported as inconclusive [inhibitor, single point].
`COc1ccccc1NC(=O)CN(c1ccc([N+](=O)[O-])cc1)S(=O)(=O)c1ccccc1` was tested, and the Potency was inconclusive [inhibitor, single point].
With `Cc1nc([N+](=O)[O-])c(C(=O)OCc2cccc(Br)c2)n1C` the “activity, negative = inhibition” value was inactive: -9.01%.
With `O=C(CSc1nccc(=O)[nH]1)Nc1ccc(S(=O)(=O)N2CCOCC2)cc1` the Potency was inconclusive [inhibitor, single point].
`COc1cccc(N=C2SC(CC(=O)Nc3ccccc3)C(=O)N2Cc2ccccn2)c1` (stereo unspecified) was tested, and the Potency was active: 8.91 µM.
For `COc1ccc(CCn2c(=S)[nH]c3cc(C(=O)NCc4ccco4)ccc3c2=O)cc1OC`, the Potency was active: 0.0501 µM.
In the case of `CN(C)c1nc(NCc2ccccc2)nc(N/N=C/c2ccccc2F)n1`, the “activity, negative = inhibition” value is reported as inactive: -0.288%.
`Cc1ccc(S(=O)(=O)N2CCN(C(C(=O)Nc3ccc(F)cc3)c3ccccc3)CC2)cc1` (stereo unspecified) was tested, and the Potency was inconclusive [inhibitor, partial curve].
`O=C(CNCc1cccs1)Nc1ccc(N2CCCCCC2)cc1` was tested, and the Potency was active: 22.4 µM.
`CN1C(=O)C(O)(CC(=O)c2ccccc2O)c2cc(Br)ccc21` (stereo unspecified) was tested, and the “activity, negative = inhibition” value was inactive: -3.87%.
In the case of `CC1=NN(c2ccc(C)c(C)c2)C(=O)/C1=C\C=C\c1ccc([N+](=O)[O-])o1`, the Potency is reported as active: 8.91 µM.
For `O=C(Cc1ccc(Cl)cc1)Nc1ccc(N2CCCC2)cc1`, the “activity, negative = inhibition” value was inactive: 1.13%.
For `CCCCCC1=C(C(=O)OC)C(C(=O)OCC)N(S(=O)(=O)C(F)(F)F)c2ccccc21` (stereo unspecified), the Potency was inconclusive [inhibitor, single point].
In the case of `COc1ccc(-n2nnc3c(=O)n(C/C=C/c4ccccc4)cnc32)cc1`, the Potency is reported as inconclusive [inhibitor, partial curve].
`CCSc1nc2ccccc2n1S(=O)(=O)c1ccccc1` was tested, and the “activity, negative = inhibition” value was inactive: 5.46%.
With `COc1ccc(OC)c(NC(=O)CSc2nc3ccccc3c(=O)n2CCNC(C)=O)c1` the Potency was inconclusive [inhibitor, partial curve].
With `COc1cc(OC)cc(C(=O)N2CCN(C(=O)c3ccc(-c4ccccc4)cc3)CC2)c1` the “activity, negative = inhibition” value was inactive: -16.5%.
For `CCN1C(=O)[C@H]2[C@H]3[C@H](O)[C@H](O)C/C(=N/OC[C@@H](O)COCc4ccco4)[C@@H]3CC[C@@H]2C1=O`, the activity, negative = inhibition was inactive: -7.36% [at 13.5 µM] and inactive: 4.91% [at 13.5 µM].
For `CCOC(=O)C1=C(C)NC(C)=C(C(=O)OCC)C1c1cccs1`, the “activity, negative = inhibition” value was inactive: 1.55%.
With `NS(=O)(=O)c1ccc(CNC(=S)Nc2ccc(F)c(Cl)c2)cc1` the “activity, negative = inhibition” value was inactive: -20.7%.
With `CC(C)(C)C(=O)NNC(=O)c1cc2sccc2s1` the “activity, negative = inhibition” value was inactive: 6.11%.
In the case of `Cc1ccc(NC(=O)c2cc(-c3cccs3)nc3ccccc23)nc1`, the Potency is reported as inconclusive [inhibitor, single point].
With `CC(C)/C(=N\NS(=O)(=O)c1ccc(Br)cc1)c1cccs1` the Potency was inconclusive [inhibitor, single point].
`Oc1ccccc1/C=N/NC(=S)NC1CC2C=CC1C2` (stereo unspecified) was tested, and the Potency was active: 25.1 µM.
In the case of `NNC(=O)c1ccccc1-n1cccc1`, the Potency is reported as inconclusive [inhibitor, partial curve].
With `O=C(c1ccc(N2CCCCS2(=O)=O)cc1)N1CCN(c2ccc(N3CCOCC3)nn2)CC1` the Potency was inconclusive [inhibitor, single point].
With `CCN(CC)S(=O)(=O)c1ccc(C(=O)NCc2ccc3c(c2)cc(C)n3C)cc1` the Potency was inconclusive [inhibitor, partial curve].
`Cc1ccc(OCC(=O)Nc2cccc(O)c2)cc1C` was tested, and the Potency was inconclusive [inhibitor, single point].
`COc1ccc(-c2nc3cnc(OC)nc3n(C)c2=O)cc1` was tested, and the Potency was inconclusive [inhibitor, single point].
In the case of `O=C(NCC(c1cccnc1)N1CCN(c2ccccc2F)CC1)OCc1ccccc1` (stereo unspecified), the Potency is reported as inconclusive [inhibitor, single point].
For `Cc1ccc(-c2nc(CSCC(=O)N3CCN(C(=O)c4ccco4)CC3)c(C)o2)cc1`, the Potency was active: 22.4 µM.
With `CC(C)(C)C(=O)CSc1nc2ncc(Br)cc2[nH]1` the Potency was inconclusive [inhibitor, partial curve].
For `O=S(=O)(c1ccc(NC(=S)NN=C(Cc2ccccc2)Cc2ccccc2)cc1)N1CCOCC1`, the Potency was active: 17.8 µM.
With `COc1cccc(-c2nnc(SCC(=O)OC(C)C)n2Cc2ccco2)c1` the Potency was inconclusive [inhibitor, partial curve, poor fit].
In the case of `Clc1ccccc1CSc1nnc(-c2cccnc2)n1Cc1ccco1`, the Potency is reported as active: 7.94 µM.
For `CCN(CC)CCn1c(-c2ccccc2)nc2c(NCCOC)nc(C)nc21`, the Potency was inconclusive [inhibitor, partial curve].
For `COc1ccc(CCN(Cc2cccs2)S(=O)(=O)c2ccc(S(=O)(=O)N(C)C3CCCCC3)cc2)cc1OC`, the Potency was inconclusive [inhibitor, full curve, poor fit].
For `CC(C)C(NS(=O)(=O)c1ccc2c3c(cccc13)C(=O)N2)C(=O)O` (stereo unspecified), the Potency was inconclusive [inhibitor, single point].
`c1ccc(Cn2nnnc2C(c2ccccn2)N2CCOCC2)cc1` (stereo unspecified) was tested, and the “activity, negative = inhibition” value was inactive: 5.09%.
